According to the RNAGym collection of RNA variant scans (doi:10.1073/pnas.2313332121):
Variants at the floor of the assay are shown more often than the library holds them.

B1: TPR 5TU (parent)
chain: GGAUCUUCUCGAUCUAACAAAAAAGACAAAUCUGCCACAAAGCUUGAGAGCAUCUUCGGAUGCAGAGGCGGCAGCCUUCGGUGGCGCGAUAGCGCCAACGUUCUCAACUAUGACACGCAAAACGCGUGCUCCGUUGAAUGGAGUUUAUCAUG

Variants of: B1
Experiment: polymerase ribozyme fitness, log enrichment relative to wild type (log ratio); higher = more active; in vitro selection for triplet polymerase activity
Method in brief: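 PCR was used to build mutant libraries for each subunit of a heterodimeric triplet polymerase ribozyme, which were then transcribed. A single in vitro selection round, in triplicate, used a frozen incubation at −7 °C and recovered extended constructs by gel excision, streptavidin beads and RT-PCR. Fitness is the logarithm of genotype enrichment relative to wild-type enrichment, averaged over replicates with inverse-variance weights. The logarithm is base 2, and after Illumina sequencing only genotypes with ≥10 input reads and ≥1 read per output were kept.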

Polymerase ribozyme fitness (log ratio), -2.77:
A16C U31A U104G A142C

Polymerase ribozyme fitness (log ratio), -1.85:
A16C C87U

Polymerase ribozyme fitness (log ratio), -3.41:
A16C U82A C95G G141A

Polymerase ribozyme fitness (log ratio), -3.92:
A16C C57A G94A C116U G124A A142U

Polymerase ribozyme fitness (log ratio), -0.894:
A16C G81A

Polymerase ribozyme fitness (log ratio), ≤ -4.2:
A16C C32A C99A A120C U134C U151G
A16C C32A U61A U102G
A16C C36G A60C A91C A107G C129U A142U U145A U146C U151C G152A
A16C C36U C38U C76U A138G G143U
A16C C36U G46A A60U U127G
A16C C38U G80U C96G A142C U148G
A16C C43A G48A U56G G84U G143A
A16C C43U C51U G68U C93G
A16C C43U G46U A52G C95A G112A
A16C C51U C87G C118G G133U
A16C C54U U55G C79U C105U C125A A147G
A16C C57A A66U U77C C99G
A16C C57U G59A A66C U78A G92A C99U G128C
A16C C72G C99A C103G G117C
A16C C76A G83A A91U A106C C108A U130A
A16C C79A
A16C C79A A91U C116A C149A
A16C C87G A98G C149A
A16C G25C G42A G84U
A16C G42C C85G A89U C95U G143U
A16C G46A G65C A66C C85U U104A C108A C125G
A16C G46A G84A U90C A122G
A16C G50A U139C
A16C G50U G74C C95U C108U
A16C G50U G80C G136A
A16C G59A U82A A147C C149A
A16C G59C G94C G126A U139A
A16C G65A G71C U148G
A16C G65C U130A G140U
A16C G67U U109A
A16C G83C U146G U148C C149A
A16C G84U G141C U144A
A16C G92C C105A A120U
A16C U33A C54A C85A A91G C125G G133U
A16C U44A A142C
A16C U55A G58C G83C C85A
A16C U77A G88A G136A
A16G A17C A23G A24G A113C
A16G A19C C85U C96A C125U U139A
A16G A20G A28U G58C G94U G136U
A16G A20U A24U C93U
A16G A21C G59A U61A G71A A73G C93U C108A
A16G A22G U78C G83C C85A C105A G126A C132A
A16G A22U A91U C93U U102G G128U
A16G A22U C57U G84C C85G C99U C129A G133A G143U
A16G A23U A29G A37U C43U C79G C99A A122G
A16G A23U A29G A47C G50A C87G A106U U135C A147U
A16G A24U U44A U90A
A16G A26G C69G A73G C93A C105G
A16G A26U C38A C63U C85G A91U G117A G141C
A16G A28C C36A U44A G48C A49C C76G U77C A91U C103G
A16G A28C U53A C85U A89U A110G
A16G A29C U56A
A16G A29G A47U C57U A73C C93G A98G A115G
A16G A29G C43A C116U
A16G A29G C43G A52U A91C
A16G A30U C35U U45G G92A C108U C125U
A16G A30U C87A C103A U148C
A16G A30U G83U U127G
A16G A39U A47C G58A G141U
A16G A39U G50A C85U C99A
A16G A39U G59U G71A G74A C85G U135C
A16G A40C C57A U77C G92U
A16G A40G G86C
A16G A40G U45A G50C C79U U82G C93U U102G
A16G A49G U61A G71A U90C G94A A119G
A16G A49U G62A G92A C96A
A16G A52G C57U A73C C85U C96G
A16G C18G A24G A41U C85U
A16G C18U A22C A26G A37U C54U G100A A110G
A16G C18U A22U A24G C95G C96U C149A
A16G C18U U31G C35A C43A C95G C103U
A16G C27A G58C C85A C96G C116U G143C U148A
A16G C27G C54G G83A G86U A97U C105U U146A
A16G C27G G70C C87U A119U G133C G143A

Polymerase ribozyme fitness (log ratio), -3.33:
A16C C35U G80A G94A C118U

Polymerase ribozyme fitness (log ratio), -4.14:
A16C C38U G50A C95G C116G

Polymerase ribozyme fitness (log ratio), -4.11:
A16G A19G A23U A26C U44A U53A C87G C103A

Polymerase ribozyme fitness (log ratio), -3.75:
A16G A19U C93A
